# Assay results taken from the supplement of paper PMC10441789.
# The other results are listed elsewhere or left out. Antibody binding of pooled human sera (four to six donors per pool; dilution not stated) to peptides of the Trypanosoma cruzi antigen TSSA on microarrays. Quantile-normalised fluorescence in arbitrary units, mean of duplicate arrays; higher = more binding. No active / inactive call. The uninfected pools are read here as the healthy donors of the same country. The strongest signals lie near the top of the scale (about 60,000).
# Tests used:
# Test in all cases: antibody binding signal (normalised fluorescence) (arbitrary fluorescence units); higher = stronger serum antibody binding to peptide
# [1] = system: pooled sera of chronic Chagas disease patients, Argentina
# Description: (§1)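 Microarray of 15-residue peptides over residues 30-55 of Trypanosoma cruzi TSSAII, each with 1 to 10 substitutions at naturally variable positions, probed with one serum pool per country.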
# [2] = system: pooled sera of chronic Chagas disease patients, Bolivia
# Description: as §1
# [3] = system: pooled sera of chronic Chagas disease patients, Brazil
# Description: as §1
# [4] = system: pooled sera of chronic Chagas disease patients, Colombia
# Description: as §1
# [5] = system: pooled sera of chronic Chagas disease patients, Mexico
# Description: as §1
# [6] = system: pooled sera of chronic Chagas disease patients, USA
# Description: as §1
# [7] = system: pooled sera of uninfected people, Argentina
# Description: as §1
# [8] = system: pooled sera of uninfected people, Bolivia
# Description: as §1
# [9] = system: pooled sera of uninfected people, Brazil
# Description: as §1
# [10] = system: pooled sera of uninfected people, Colombia
# Description: as §1
# [11] = system: pooled sera of uninfected people, Mexico
# Description: as §1
# [12] = system: pooled sera of uninfected people, USA
# Description: as §1
Sequence,antibody binding signal [1],antibody binding signal [2],antibody binding signal [3],antibody binding signal [4],antibody binding signal [5],antibody binding signal [6],antibody binding signal [7],antibody binding signal [8],antibody binding signal [9],antibody binding signal [10],antibody binding signal [11],antibody binding signal [12]
KKTATGGAPSPSGAS,586,455,567,1970,338,501,265,213,155,135,167,289
ENKAAAGGTPSPPGA,406,1210,341,3810,306,1120,178,177,1720,428,131,156
NKTAAGGAPSQPGAS,259,656,7510,5190,798,453,772,1050,461,370,301,946
GTEKKTATGEAPSQP,14000,24500,38400,924,1700,20600,207,676,245,111,233,136
TDKKAAAGGTPSQSG,1210,226,218,4560,426,1440,207,84.4,1310,153,120,163
GTENKAAAGEAPSPS,34900,2140,14600,466,724,12200,125,225,157,120,95.4,116
GTEKKAATGETPSQS,5410,2320,14900,2150,3090,11200,550,831,217,634,239,191
TDKKPAAGGTPSPPG,468,210,334,5600,280,842,130,731,2470,259,113,192
TPPSGKDNKAAAGGT,769,218,1010,559,33800,2880,301,646,688,215,90.6,118
KKAAAGGTPSQSGAS,206,241,214,2460,203,1160,249,118,1260,119,169,222
DKKTAAGEAPSPPGA,320,215,804,395,456,6160,159,114,142,1090,447,151
KKAATGETPSQPGAS,1030,878,31600,129,141,7670,351,349,120,298,79.2,381
KDKKPATGGAPSPSG,393,478,219,627,243,985,224,317,99.5,86.1,85.5,96
EKKTATGGAPSPPGA,1700,358,3040,3490,1110,1510,377,809,116,175,244,637
TDKKTATGGTPSPPG,784,926,376,3970,635,1390,249,163,297,697,147,132
GTDNKTAAGETPSPP,156,306,28300,196,333,1110,178,668,1260,165,211,535
PPSGTENKAAAGGTP,54400,42600,50900,1250,8820,13200,2070,772,1110,1110,289,796
SSTPPSGTDKKPATG,42200,20000,46100,13800,51000,12400,1220,948,370,291,4410,443
KENKTATGETPSPSG,528,383,1640,692,263,7380,188,261,156,175,277,2740
KENKTAAGGAPSQPG,251,284,2270,2380,276,1100,225,109,385,105,100,160
GKDNKTAAGGTPSPP,691,200,251,3360,639,1790,150,124,258,184,202,140
PSGKEKKAATGGAPS,10800,2560,8720,13900,15600,7430,412,363,126,299,113,156
PPSGKDKKTAAGETP,823,620,715,1040,31700,1800,202,356,111,271,78.2,97.1
PSGKDKKPATGETPS,27100,9120,18200,3020,4660,18900,183,477,131,130,1100,131
KDKKPATGEAPSPPG,39900,18900,39700,149,149,28000,759,288,130,153,93.5,111

Sequence,antibody binding signal [1],antibody binding signal [2],antibody binding signal [3],antibody binding signal [4],antibody binding signal [5],antibody binding signal [6],antibody binding signal [7],antibody binding signal [8],antibody binding signal [9],antibody binding signal [10],antibody binding signal [11],antibody binding signal [12]
KDKKPAAGGAPSPPG,157,210,154,1400,151,441,123,82.3,113,71,67.5,104
TISTPPSGKDKKTAA,19200,334,1030,373,40100,502,335,209,123,153,87.4,175
GTDKKPAAGGTPSPS,306,316,852,10300,623,1130,152,336,1300,255,254,193
SGTEKKTATGGTPSQ,2510,904,1840,6290,1570,2570,306,642,331,941,279,130
TENKAAAGEAPSQSG,28100,15900,24600,223,175,12900,73.4,123,108,64,101,109
NKTAAGGTPSPPGAS,1240,359,2210,5160,591,1440,622,1160,1550,795,914,1630
NKPAAGETPSPPGAS,254,668,20400,355,234,2540,501,1110,451,868,230,1520
KEKKPATGETPSPPG,23700,4850,21600,167,149,16100,130,177,135,130,740,812
DNKAAAGGAPSQPGA,342,930,13300,3240,455,297,344,451,302,365,739,282
GTENKAAAGGAPSPS,36200,564,878,4260,798,1010,233,436,151,321,144,324
GTEKKTATGGTPSQP,1280,453,841,4010,1020,1980,418,379,266,756,808,128
KKTATGEAPSQSGAS,2540,7870,12400,215,258,14500,357,193,113,105,117,392
DNKAATGEAPSPSGA,26200,43200,36100,119,129,26800,182,166,212,121,114,130
GTENKPAAGEAPSQP,41800,26700,44300,3430,6880,16400,311,1360,274,124,134,102
KEKKTATGGTPSPPG,322,267,196,948,226,1260,169,74.9,108,114,87.7,91.4
TSSTPPSGKENKAAA,17700,3960,9670,914,3650,2520,3600,1130,118,839,126,453
KKAAAGGAPSQPGAS,274,249,778,2130,214,273,202,125,134,93.3,86.4,195
TPPSGTDNKPATGEA,45500,43500,48900,4320,8890,29700,2210,744,460,319,694,525
GTENKAATGETPSPS,33500,10200,17400,908,1100,11900,163,394,173,175,452,2560
NKPAAGGAPSQSGAS,340,326,7290,1690,975,586,806,1090,499,270,390,1170
KDKKTATGGTPSQSG,310,240,247,615,188,1220,264,88.5,130,100,101,101
ENKTATGEAPSPPGA,13100,33600,21000,223,490,21000,129,98.5,206,164,89.6,116
KDNKAATGEAPSQPG,23800,23700,36400,207,232,22300,381,825,236,154,103,162
SGTEKKTATGETPSQ,741,1180,4600,403,310,6890,235,418,322,140,141,151
PSGKDNKAAAGGAPS,3400,445,3930,7560,7190,3910,270,166,106,134,81.8,111
